Consider nine variants from the supplement of paper PMC12217912.

The list shows a part of the results. Sequences were assembled here from the parent chain. Inactive controls read about 0.05.

B1: TEV protease; numbered along this chain (parent)
chain: MGESLFKGPRDYNPISSSICHLTNESDGHTTSLYGIGFGPFIITNKHLFRRNNGTLVVQSLHGVFKVKDTTTLQQHLVDGRDMIIIRMPKDFPPFPQKLKFREPQREERICLVTTNFQTKSMSSMVSDTSCTFPSGDGIFWKHWIQTKDGQCGSPLVSTRDGFIVGIHSASNFTNTNNYFTSVPKNFMELLTNQEAQQWVSGWRLNADSVLWGGHKVFMVKPEEPFQPVKEATQL

The variants in this assay derive from B1. The assay is described as follows: raw area under fraction-flipped curve 0-4 h after induction (AUC4h, not background-subtracted), DNA-recorder readout of cleavage of the substrate (dimensionless); higher = more cleavage of the substrate by the protease variant. The following applies: temperature: 34 °C; time window: 0-4 h after rhamnose induction. The method, then: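 In vivo DNA recorder in E. coli TOP10(DE3) ΔrhaA at 34 °C. Each TEVp single-site mutant (parent TEVp 0) is paired with a single-site variant of the 7-mer TEVs (canonical ENLYFQ|S). The substrate sits between flexible linkers in a Bxb1-sfGFP-TEVs-SsrA fusion, so cleavage stabilises Bxb1 and speeds flipping of a recombination array, read by NGS. The value is the raw area under the fraction-flipped curve over 0-4 h after rhamnose induction (AUC4h), with ≥20 reads per time point. It is not background-subtracted; inactive controls average about 0.047.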
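Also: Bxb1 expression induced with 0.2% (w/v) L-rhamnose at OD600 near 0.5, cultures sampled hourly, flipped fraction per protease–substrate barcode pair counted by paired-end Illumina sequencing.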

As to MGESLFKGPRDYNPIGSSICHLTNESDGHTTSLYGIGFGPFIITNKHLFRRNNGTLVVQSLHGVFKVKDTTTLQQHLVDGRDMIIIRMPKDFPPFPQKLKFREPQREERICLVTTNFQTKSMSSMVSDTSCTFPSGDGIFWKHWIQTKDGQCGSPLVSTRDGFIVGIHSASNFTNTNNYFTSVPKNFMELLTNQEAQQWVSGWRLNADSVLWGGHKVFMVKPEEPFQPVKEATQL [S16G], the “area with substrate ENLYFAS” value turned out to be 0.0699, the “area with substrate ENLYFCS” value turned out to be 0.0527, the “area with substrate ENLYFES” value came out at 0.0682 and the “area with substrate ENLYFFS” value came to 0.065. Besides, the “area with substrate ENLYFGS” value was determined as 0.0605, the “area with substrate ENLYFHS” value amounted to 0.0686, the “area with substrate ENLYFIS” value came to 0.0628 and the “area with substrate ENLYFKS” value stood at 0.0703. In addition, the “area with substrate ENLYFMS” value came out at 0.0677, the “area with substrate ENLYFNS” value was determined as 0.066, the “area with substrate ENLYFPS” value stood at 0.0552 and the “area with substrate ENLYFTS” value amounted to 0.0736. Moreover, the “area with substrate ENLYFVS” value was 0.0392, the “area with substrate ENLYFWS” value was found to be 0.0638 and the “area with substrate ENLYFYS” value was 0.0619.

Consider MGESLFKGPRDYNPIISSICHLTNESDGHTTSLYGIGFGPFIITNKHLFRRNNGTLVVQSLHGVFKVKDTTTLQQHLVDGRDMIIIRMPKDFPPFPQKLKFREPQREERICLVTTNFQTKSMSSMVSDTSCTFPSGDGIFWKHWIQTKDGQCGSPLVSTRDGFIVGIHSASNFTNTNNYFTSVPKNFMELLTNQEAQQWVSGWRLNADSVLWGGHKVFMVKPEEPFQPVKEATQL [S16I], for which the “area with substrate ENLYFAS” value is 0.0587, the “area with substrate ENLYFCS” value was 0.0417, the “area with substrate ENLYFDS” value came out at 0.0624 and the “area with substrate ENLYFES” value came to 0.03. For the same variant, the “area with substrate ENLYFFS” value stood at 0.067, the “area with substrate ENLYFHS” value is 0.0674, the “area with substrate ENLYFIS” value was determined as 0.0565 and the “area with substrate ENLYFKS” value was determined as 0.0627. The “area with substrate ENLYFMS” value was found to be 0.0654, the “area with substrate ENLYFNS” value is 0.0581, the “area with substrate ENLYFPS” value was 0.062 and the “area with substrate ENLYFRS” value worked out at 0.0484. Besides, the “area with substrate ENLYFSS” value was 0.0615, the “area with substrate ENLYFTS” value was determined as 0.0584 and the “area with substrate ENLYFWS” value is 0.0491.

With MGESLFKGPRDYNPINSSICHLTNESDGHTTSLYGIGFGPFIITNKHLFRRNNGTLVVQSLHGVFKVKDTTTLQQHLVDGRDMIIIRMPKDFPPFPQKLKFREPQREERICLVTTNFQTKSMSSMVSDTSCTFPSGDGIFWKHWIQTKDGQCGSPLVSTRDGFIVGIHSASNFTNTNNYFTSVPKNFMELLTNQEAQQWVSGWRLNADSVLWGGHKVFMVKPEEPFQPVKEATQL [S16N], the “area with substrate ENLYFAS” value was 0.0641, the “area with substrate ENLYFCS” value came out at 0.061, the “area with substrate ENLYFDS” value amounted to 0.0595 and the “area with substrate ENLYFES” value worked out at 0.0581. For the same variant, the “area with substrate ENLYFFS” value was determined as 0.0706, the “area with substrate ENLYFGS” value was found to be 0.06, the “area with substrate ENLYFHS” value came out at 0.0521 and the “area with substrate ENLYFIS” value was 0.0512. Moreover, the “area with substrate ENLYFLS” value amounted to 0.06, the “area with substrate ENLYFMS” value stood at 0.0613, the “area with substrate ENLYFNS” value came out at 0.0597 and the “area with substrate ENLYFPS” value was determined as 0.0511. Further, the “area with substrate ENLYFSS” value was 0.0529, the “area with substrate ENLYFTS” value is 0.0501, the “area with substrate ENLYFWS” value stood at 0.0168 and the “area with substrate ENLYFYS” value stood at 0.0626.

Turning to MGESLFKGPRDYNPICSSICHLTNESDGHTTSLYGIGFGPFIITNKHLFRRNNGTLVVQSLHGVFKVKDTTTLQQHLVDGRDMIIIRMPKDFPPFPQKLKFREPQREERICLVTTNFQTKSMSSMVSDTSCTFPSGDGIFWKHWIQTKDGQCGSPLVSTRDGFIVGIHSASNFTNTNNYFTSVPKNFMELLTNQEAQQWVSGWRLNADSVLWGGHKVFMVKPEEPFQPVKEATQL [S16C], the “area with substrate ENLYFAS” value is 0.0846, the “area with substrate ENLYFES” value is 0.0713, the “area with substrate ENLYFFS” value came to 0.0647 and the “area with substrate ENLYFGS” value was 0.0678. Besides, the “area with substrate ENLYFIS” value was determined as 0.0665, the “area with substrate ENLYFKS” value was 0.0782, the “area with substrate ENLYFMS” value was found to be 0.0558 and the “area with substrate ENLYFNS” value amounted to 0.0647. For the same variant, the “area with substrate ENLYFPS” value is 0.056, the “area with substrate ENLYFSS” value turned out to be 0.0627, the “area with substrate ENLYFTS” value worked out at 0.0386 and the “area with substrate ENLYFVS” value turned out to be 0.059. For the same variant, the “area with substrate ENLYFWS” value was determined as 0.0569.

With MGESLFKGPRDYNPIASSICHLTNESDGHTTSLYGIGFGPFIITNKHLFRRNNGTLVVQSLHGVFKVKDTTTLQQHLVDGRDMIIIRMPKDFPPFPQKLKFREPQREERICLVTTNFQTKSMSSMVSDTSCTFPSGDGIFWKHWIQTKDGQCGSPLVSTRDGFIVGIHSASNFTNTNNYFTSVPKNFMELLTNQEAQQWVSGWRLNADSVLWGGHKVFMVKPEEPFQPVKEATQL [S16A], the “area with substrate ENLYFAS” value turned out to be 0.0635, the “area with substrate ENLYFCS” value came out at 0.0687, the “area with substrate ENLYFDS” value worked out at 0.0528 and the “area with substrate ENLYFES” value was 0.0665. In addition, the “area with substrate ENLYFFS” value is 0.0675, the “area with substrate ENLYFGS” value was 0.0691, the “area with substrate ENLYFIS” value amounted to 0.0524 and the “area with substrate ENLYFKS” value was 0.0493. Moreover, the “area with substrate ENLYFLS” value was found to be 0.0614, the “area with substrate ENLYFMS” value turned out to be 0.0606, the “area with substrate ENLYFNS” value was determined as 0.0677 and the “area with substrate ENLYFPS” value came to 0.0544. Also, the “area with substrate ENLYFRS” value was 0.0663, the “area with substrate ENLYFSS” value came to 0.0549, the “area with substrate ENLYFTS” value is 0.0472 and the “area with substrate ENLYFVS” value was 0.0593. Further, the “area with substrate ENLYFWS” value amounted to 0.0526.

Consider MGESLFKGPRDYNPIMSSICHLTNESDGHTTSLYGIGFGPFIITNKHLFRRNNGTLVVQSLHGVFKVKDTTTLQQHLVDGRDMIIIRMPKDFPPFPQKLKFREPQREERICLVTTNFQTKSMSSMVSDTSCTFPSGDGIFWKHWIQTKDGQCGSPLVSTRDGFIVGIHSASNFTNTNNYFTSVPKNFMELLTNQEAQQWVSGWRLNADSVLWGGHKVFMVKPEEPFQPVKEATQL [S16M], for which the “area with substrate ENLYFAS” value is 0.036, the “area with substrate ENLYFCS” value came to 0.0634, the “area with substrate ENLYFDS” value stood at 0.08 and the “area with substrate ENLYFES” value stood at 0.0701. In addition, the “area with substrate ENLYFFS” value came out at 0.074, the “area with substrate ENLYFHS” value is 0.0877, the “area with substrate ENLYFIS” value was determined as 0.06 and the “area with substrate ENLYFKS” value is 0.0566. For the same variant, the “area with substrate ENLYFMS” value came to 0.0655, the “area with substrate ENLYFNS” value was 0.0564, the “area with substrate ENLYFPS” value is 0.0578 and the “area with substrate ENLYFRS” value amounted to 0.0784. Moreover, the “area with substrate ENLYFTS” value amounted to 0.0651, the “area with substrate ENLYFVS” value was found to be 0.0506, the “area with substrate ENLYFWS” value was determined as 0.0484 and the “area with substrate ENLYFYS” value is 0.0541.

For the variant MGESLFKGPRDYNPILSSICHLTNESDGHTTSLYGIGFGPFIITNKHLFRRNNGTLVVQSLHGVFKVKDTTTLQQHLVDGRDMIIIRMPKDFPPFPQKLKFREPQREERICLVTTNFQTKSMSSMVSDTSCTFPSGDGIFWKHWIQTKDGQCGSPLVSTRDGFIVGIHSASNFTNTNNYFTSVPKNFMELLTNQEAQQWVSGWRLNADSVLWGGHKVFMVKPEEPFQPVKEATQL [S16L], the “area with substrate ENLYFAS” value stood at 0.0574, the “area with substrate ENLYFCS” value is 0.0632, the “area with substrate ENLYFES” value stood at 0.0598 and the “area with substrate ENLYFHS” value was 0.0652. The “area with substrate ENLYFIS” value was found to be 0.0499, the “area with substrate ENLYFMS” value stood at 0.063, the “area with substrate ENLYFPS” value worked out at 0.0379 and the “area with substrate ENLYFTS” value was determined as 0.0521. Besides, the “area with substrate ENLYFVS” value came to 0.043, the “area with substrate ENLYFWS” value came to 0.0497 and the “area with substrate ENLYFYS” value amounted to 0.0646.

As for MGESLFKGPRDYNPIHSSICHLTNESDGHTTSLYGIGFGPFIITNKHLFRRNNGTLVVQSLHGVFKVKDTTTLQQHLVDGRDMIIIRMPKDFPPFPQKLKFREPQREERICLVTTNFQTKSMSSMVSDTSCTFPSGDGIFWKHWIQTKDGQCGSPLVSTRDGFIVGIHSASNFTNTNNYFTSVPKNFMELLTNQEAQQWVSGWRLNADSVLWGGHKVFMVKPEEPFQPVKEATQL [S16H], the “area with substrate ENLYFAS” value is 0.0895, the “area with substrate ENLYFCS” value was 0.0667, the “area with substrate ENLYFES” value worked out at 0.0615 and the “area with substrate ENLYFFS” value was determined as 0.0712. For the same variant, the “area with substrate ENLYFGS” value is 0.0607, the “area with substrate ENLYFIS” value worked out at 0.0475, the “area with substrate ENLYFKS” value was 0.065 and the “area with substrate ENLYFLS” value came out at 0.0564. Moreover, the “area with substrate ENLYFMS” value worked out at 0.073, the “area with substrate ENLYFNS” value amounted to 0.0571, the “area with substrate ENLYFPS” value turned out to be 0.0626 and the “area with substrate ENLYFRS” value was found to be 0.0596. Also, the “area with substrate ENLYFSS” value was 0.0643, the “area with substrate ENLYFTS” value came out at 0.0598, the “area with substrate ENLYFWS” value was determined as 0.0555 and the “area with substrate ENLYFYS” value stood at 0.0594.

As to MGESLFKGPRDYNPIQSSICHLTNESDGHTTSLYGIGFGPFIITNKHLFRRNNGTLVVQSLHGVFKVKDTTTLQQHLVDGRDMIIIRMPKDFPPFPQKLKFREPQREERICLVTTNFQTKSMSSMVSDTSCTFPSGDGIFWKHWIQTKDGQCGSPLVSTRDGFIVGIHSASNFTNTNNYFTSVPKNFMELLTNQEAQQWVSGWRLNADSVLWGGHKVFMVKPEEPFQPVKEATQL [S16Q], the “area with substrate ENLYFAS” value came out at 0.0557, the “area with substrate ENLYFCS” value turned out to be 0.0567, the “area with substrate ENLYFDS” value was determined as 0.0427 and the “area with substrate ENLYFES” value was found to be 0.0605. Further, the “area with substrate ENLYFFS” value turned out to be 0.0666, the “area with substrate ENLYFGS” value is 0.0485, the “area with substrate ENLYFHS” value was 0.0567 and the “area with substrate ENLYFIS” value amounted to 0.0603. Further, the “area with substrate ENLYFKS” value was 0.0696, the “area with substrate ENLYFLS” value was determined as 0.0576, the “area with substrate ENLYFMS” value was 0.0693 and the “area with substrate ENLYFNS” value was 0.0666. In addition, the “area with substrate ENLYFPS” value turned out to be 0.0615, the “area with substrate ENLYFRS” value came to 0.0542, the “area with substrate ENLYFSS” value is 0.0444 and the “area with substrate ENLYFTS” value was determined as 0.0524. The “area with substrate ENLYFVS” value was 0.06, the “area with substrate ENLYFWS” value came to 0.0399 and the “area with substrate ENLYFYS” value worked out at 0.0525.
